# From PMC4374139
# Protein sequences, listed by entry. Tags and fused reporters are not part of them. Lines headed by an entry give the natural chain unless they say otherwise; changes in a name come on top. Chains listed by the source or under a name are the forms on record and can include a tag or linker. Residues count along the entry.
# UniProt P54132: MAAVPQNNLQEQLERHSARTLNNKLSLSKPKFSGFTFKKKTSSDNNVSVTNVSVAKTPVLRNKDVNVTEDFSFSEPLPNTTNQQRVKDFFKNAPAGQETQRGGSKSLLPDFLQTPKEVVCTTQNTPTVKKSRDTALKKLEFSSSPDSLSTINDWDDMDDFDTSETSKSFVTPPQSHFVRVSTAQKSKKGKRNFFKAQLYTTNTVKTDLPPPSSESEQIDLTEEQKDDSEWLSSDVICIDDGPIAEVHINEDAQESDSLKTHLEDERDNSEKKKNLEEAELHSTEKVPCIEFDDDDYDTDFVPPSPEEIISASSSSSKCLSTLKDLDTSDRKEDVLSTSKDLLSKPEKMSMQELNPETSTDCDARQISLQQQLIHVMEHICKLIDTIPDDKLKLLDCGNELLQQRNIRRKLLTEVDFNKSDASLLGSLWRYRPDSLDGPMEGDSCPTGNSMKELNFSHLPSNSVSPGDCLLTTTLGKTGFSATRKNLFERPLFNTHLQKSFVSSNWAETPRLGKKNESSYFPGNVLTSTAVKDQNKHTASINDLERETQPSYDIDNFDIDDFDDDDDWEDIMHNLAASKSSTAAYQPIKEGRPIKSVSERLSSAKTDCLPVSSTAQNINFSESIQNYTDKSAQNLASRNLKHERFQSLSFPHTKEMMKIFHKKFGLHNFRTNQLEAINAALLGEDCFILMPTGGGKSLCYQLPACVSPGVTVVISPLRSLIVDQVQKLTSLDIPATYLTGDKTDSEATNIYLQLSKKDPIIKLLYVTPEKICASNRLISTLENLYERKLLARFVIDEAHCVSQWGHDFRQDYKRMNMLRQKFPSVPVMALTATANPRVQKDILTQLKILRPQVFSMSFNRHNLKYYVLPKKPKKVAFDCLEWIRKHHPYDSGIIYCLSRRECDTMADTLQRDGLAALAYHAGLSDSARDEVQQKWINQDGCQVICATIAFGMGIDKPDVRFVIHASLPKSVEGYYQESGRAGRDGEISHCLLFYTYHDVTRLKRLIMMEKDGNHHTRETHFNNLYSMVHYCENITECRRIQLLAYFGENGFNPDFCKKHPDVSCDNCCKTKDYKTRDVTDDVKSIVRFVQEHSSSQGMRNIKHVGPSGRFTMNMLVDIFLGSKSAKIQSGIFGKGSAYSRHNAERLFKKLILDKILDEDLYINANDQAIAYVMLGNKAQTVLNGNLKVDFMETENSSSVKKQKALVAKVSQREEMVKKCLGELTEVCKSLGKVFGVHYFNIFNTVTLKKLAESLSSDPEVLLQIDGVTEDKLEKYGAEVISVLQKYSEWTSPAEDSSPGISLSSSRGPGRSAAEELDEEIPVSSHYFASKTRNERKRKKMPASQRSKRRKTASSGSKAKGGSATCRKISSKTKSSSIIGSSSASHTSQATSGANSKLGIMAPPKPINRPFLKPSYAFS
# GFP-tagged BLM lacking the N-terminal 132 residues: residues 133-1417 of P54132
# UniProt Q92547: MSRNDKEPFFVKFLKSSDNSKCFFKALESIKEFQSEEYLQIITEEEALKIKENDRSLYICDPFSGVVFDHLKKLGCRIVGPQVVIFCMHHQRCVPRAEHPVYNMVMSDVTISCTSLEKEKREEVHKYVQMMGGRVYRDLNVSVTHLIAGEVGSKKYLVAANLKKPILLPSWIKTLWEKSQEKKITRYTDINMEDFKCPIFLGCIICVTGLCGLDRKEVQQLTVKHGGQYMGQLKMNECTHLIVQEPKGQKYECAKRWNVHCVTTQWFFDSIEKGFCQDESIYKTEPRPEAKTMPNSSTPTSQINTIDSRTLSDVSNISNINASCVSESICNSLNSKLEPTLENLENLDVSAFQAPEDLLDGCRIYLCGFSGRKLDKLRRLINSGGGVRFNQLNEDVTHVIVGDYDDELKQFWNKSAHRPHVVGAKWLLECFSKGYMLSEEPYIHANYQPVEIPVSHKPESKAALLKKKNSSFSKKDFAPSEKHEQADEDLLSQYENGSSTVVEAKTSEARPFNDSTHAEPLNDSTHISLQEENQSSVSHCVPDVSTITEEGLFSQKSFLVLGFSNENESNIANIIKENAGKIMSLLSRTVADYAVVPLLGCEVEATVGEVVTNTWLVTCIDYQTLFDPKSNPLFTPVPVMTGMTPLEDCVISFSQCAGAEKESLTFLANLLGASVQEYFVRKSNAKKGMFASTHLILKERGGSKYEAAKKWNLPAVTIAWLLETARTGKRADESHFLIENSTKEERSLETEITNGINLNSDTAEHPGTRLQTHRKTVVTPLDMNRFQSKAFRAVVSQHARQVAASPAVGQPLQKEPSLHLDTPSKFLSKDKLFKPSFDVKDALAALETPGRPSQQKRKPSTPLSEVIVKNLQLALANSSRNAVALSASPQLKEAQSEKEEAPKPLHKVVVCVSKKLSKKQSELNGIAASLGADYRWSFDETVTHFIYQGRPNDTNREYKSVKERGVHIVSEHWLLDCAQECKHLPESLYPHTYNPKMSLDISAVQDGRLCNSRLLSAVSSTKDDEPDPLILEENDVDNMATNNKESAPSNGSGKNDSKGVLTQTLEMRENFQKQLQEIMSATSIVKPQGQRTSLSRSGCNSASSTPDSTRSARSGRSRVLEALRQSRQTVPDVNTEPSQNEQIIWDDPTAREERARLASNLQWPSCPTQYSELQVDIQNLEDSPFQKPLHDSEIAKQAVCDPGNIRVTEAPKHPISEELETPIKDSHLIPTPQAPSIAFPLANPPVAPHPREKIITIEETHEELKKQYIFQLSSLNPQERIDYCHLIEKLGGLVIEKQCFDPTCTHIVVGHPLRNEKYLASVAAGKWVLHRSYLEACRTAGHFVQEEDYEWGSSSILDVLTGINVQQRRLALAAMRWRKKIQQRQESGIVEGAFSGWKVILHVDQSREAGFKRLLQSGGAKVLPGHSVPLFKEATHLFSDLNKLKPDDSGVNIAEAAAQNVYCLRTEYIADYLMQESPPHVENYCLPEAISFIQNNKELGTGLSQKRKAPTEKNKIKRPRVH
# No constants are given. Whether binding was seen depends on the method and setting. In cells and extracts the contact can be indirect. Some entries that bind do so weakly or less than the wild type.
# B1: RMI2 (protein, UniProt Q96E14 1-147)
# chain: MAAAADSFSGGPAGVRLPRSPPLKVLAEQLRRDAEGGPGAWRLSRAAAGRGPLDLAAVWMQGRVVMADRGEARLRDPSGDFSVRGLERVPRGRPCLVPGKYVMVMGVVQACSPEPCLQAVKMTDLSDNPIHESMWELEVEDLHRNIP
# B2: topoisomerase IIIα (TOP3A) (protein, UniProt Q13472 1-1001)
# chain: MIFPVARYALRWLRRPEDRAFSRAAMEMALRGVRKVLCVAEKNDAAKGIADLLSNGRMRRREGLSKFNKIYEFDYHLYGQNVTMVMTSVSGHLLAHDFQMQFRKWQSCNPLVLFEAEIEKYCPENFVDIKKTLERETRQCQALVIWTDCDREGENIGFEIIHVCKAVKPNLQVLRARFSEITPHAVRTACENLTEPDQRVSDAVDVRQELDLRIGAAFTRFQTLRLQRIFPEVLAEQLISYGSCQFPTLGFVVERFKAIQAFVPEIFHRIKVTHDHKDGIVEFNWKRHRLFNHTACLVLYQLCVEDPMATVVEVRSKPKSKWRPQALDTVELEKLASRKLRINAKETMRIAEKLYTQGYISYPRTETNIFPRDLNLTVLVEQQTPDPRWGAFAQSILERGGPTPRNGNKSDQAHPPIHPTKYTNNLQGDEQRLYEFIVRHFLACCSQDAQGQETTVEIDIAQERFVAHGLMILARNYLDVYPYDHWSDKILPVYEQGSHFQPSTVEMVDGETSPPKLLTEADLIALMEKHGIGTDATHAEHIETIKARMYVGLTPDKRFLPGHLGMGLVEGYDSMGYEMSKPDLRAELEADLKLICDGKKDKFVVLRQQVQKYKQVFIEAVAKAKKLDEALAQYFGNGTELAQQEDIYPAMPEPIRKCPQCNKDMVLKTKKNGGFYLSCMGFPECRSAVWLPDSVLEASRDSSVCPVCQPHPVYRLKLKFKRGSLPPTMPLEFVCCIGGCDDTLREILDLRFSGGPPRASQPSGRLQANQSLNRMDNSQHPQPADSRQTGSSKALAQTLPPPTAAGESNSVTCNCGQEAVLLTVRKEGPNRGRQFFKCNGGSCNFFLWADSPNPGAGGPPALAYRPLGASLGCPPGPGIHLGGFGNPGDGSGSGTSCLCSQPSVTRTVQKDGPNKGRQFHTCAKPREQQCGFFQWVDENTAPGTSGAPSWTGDRGRTLESEARSKRPRASSSDMGSTAKKPRKCSLCHQPGHTRPFCPQNR
# B3: RMI1 (protein, UniProt Q9H9A7 1-625)
# chain: MNVTSIALRAETWLLAAWHVKVPPMWLEACINWIQEENNNVNLSQAQMNKQVFEQWLLTDLRDLEHPLLPDGILEIPKGELNGFYALQINSLVDVSQPAYSQIQKLRGKNTTNDLVTAEAQVTPKPWEAKPSRMLMLQLTDGIVQIQGMEYQPIPILHSDLPPGTKILIYGNISFRLGVLLLKPENVKVLGGEVDALLEEYAQEKVLARLIGEPDLVVSVIPNNSNENIPRVTDVLDPALGPSDEELLASLDENDELTANNDTSSERCFTTGSSSNTIPTRQSSFEPEFVISPRPKEEPSNLSIHVMDGELDDFSLEEALLLEETVQKEQMETKELQPLTFNRNADRSIERFSHNPNTTNNFSLTCKNGNNNWSEKNVSEQMTNEDKSFGCPSVRDQNRSIFSVHCNVPLAHDFTNKEKNLETDNKIKQTSSSDSHSLNNKILNREVVNYVQKRNSQISNENDCNLQSCSLRSSENSINLSIAMDLYSPPFVYLSVLMASKPKEVTTVKVKAFIVTLTGNLSSSGGIWSITAKVSDGTAYLDVDFVDEILTSLIGFSVPEMKQSKKDPLQYQKFLEGLQKCQRDLIDLCCLMTISFNPSLSKAMVLALQDVNMEHLENLKKRLNK
# Experiments:
# [1] = molecular target: GFP-tagged BLM S304A (human) (UniProt P54132); assay: co-IP; pull-down of GFP-BLM proteins from U2OS cells stably expressing them; western blot
# [2] = molecular target: GFP-tagged wild-type BLM (human) (UniProt P54132); assay: as above
# [3] = molecular target: GFP-tagged BLM lacking the N-terminal 132 residues (human) (UniProt P54132); assay: co-IP; pull-down of GFP-tagged TopBP1 or BLM constructs (GFP-Trap agarose) from lysates of transiently transfected 293FT cells, 24 hr after transfection; also cells synchronized in S phase (Figure S3A); Benzonase-treated lysate, 200 mM NaCl, 2 mM EDTA, 4°C; western blot
# [4] = molecular target: GFP-tagged TopBP1 wild-type (UniProt Q92547); assay: as above
# [5] = molecular target: GFP-tagged wild-type BLM (human) (UniProt P54132); assay: as above
Binder,binding [1],binding [2],binding [3],binding [4],binding [5]
B1,binds,binds,no binding,binds,binds
B2,,,,binds,
B3,,,,binds,
